{
  "source": "paper PMC4336329",
  "about": "(PLoS ONE, 2015)",
  "note": "About 14,000 (4.5%) of roughly 310,000 compounds showed an effect of 50% or more. The effect is printed as a negative number. Some of the results follow.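 Note: peak tail current of the secondary pulse compared with the same well before compound.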",
  "data": [
    {"target": "human ether-à-go-go-related gene (hERG) potassium channel (human, UniProt Q12809)", "sequence (Q12809 whole entry, looked up)": "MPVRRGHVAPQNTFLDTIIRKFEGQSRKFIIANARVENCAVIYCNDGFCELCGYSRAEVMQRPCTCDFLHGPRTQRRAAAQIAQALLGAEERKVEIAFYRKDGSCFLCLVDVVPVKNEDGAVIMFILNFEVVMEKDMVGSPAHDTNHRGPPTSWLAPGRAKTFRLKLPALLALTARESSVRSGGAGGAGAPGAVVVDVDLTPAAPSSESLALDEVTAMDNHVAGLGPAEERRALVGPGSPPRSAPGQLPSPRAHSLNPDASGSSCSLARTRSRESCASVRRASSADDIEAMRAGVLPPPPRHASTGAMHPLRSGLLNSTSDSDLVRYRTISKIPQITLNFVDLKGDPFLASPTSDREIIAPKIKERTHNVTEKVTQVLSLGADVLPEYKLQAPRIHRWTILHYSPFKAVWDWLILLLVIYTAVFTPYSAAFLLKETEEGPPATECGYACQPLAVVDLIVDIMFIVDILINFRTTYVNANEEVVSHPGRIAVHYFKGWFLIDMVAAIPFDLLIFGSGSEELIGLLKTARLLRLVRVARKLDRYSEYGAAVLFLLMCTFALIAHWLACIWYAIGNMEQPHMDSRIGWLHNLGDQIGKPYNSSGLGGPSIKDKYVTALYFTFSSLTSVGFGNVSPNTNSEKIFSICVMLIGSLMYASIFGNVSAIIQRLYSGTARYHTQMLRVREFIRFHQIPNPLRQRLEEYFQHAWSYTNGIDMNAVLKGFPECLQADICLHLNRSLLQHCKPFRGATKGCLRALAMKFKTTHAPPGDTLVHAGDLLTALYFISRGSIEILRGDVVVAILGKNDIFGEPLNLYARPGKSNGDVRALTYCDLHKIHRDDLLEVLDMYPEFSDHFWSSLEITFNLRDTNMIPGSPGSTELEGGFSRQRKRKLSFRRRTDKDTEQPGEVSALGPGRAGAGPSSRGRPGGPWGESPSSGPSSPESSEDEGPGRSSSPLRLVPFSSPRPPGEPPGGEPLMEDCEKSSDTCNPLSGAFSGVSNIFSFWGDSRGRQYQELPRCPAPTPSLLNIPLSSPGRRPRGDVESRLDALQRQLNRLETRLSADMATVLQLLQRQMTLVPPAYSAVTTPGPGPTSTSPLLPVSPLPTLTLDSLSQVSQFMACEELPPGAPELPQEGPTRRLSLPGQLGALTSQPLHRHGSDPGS", "assay": "primary screen, population patch clamp on CHO cells stably expressing hERG", "units": {"hERG current change (%, negative = inhibition) at 10uM": "%"}, "values": [
      {"smiles": "Cc1cccc(C)c1NC(=O)CN(C)C(=O)CN1C(=O)NC2(CCCC2)C1=O", "hERG current change (%, negative = inhibition) at 10uM": -8.96},
      {"smiles": "O=C1CNC(=O)/C1=C/c1ccccc1", "hERG current change (%, negative = inhibition) at 10uM": 23.5},
      {"smiles": "O=C(CSc1nncc2ccccc12)N1CCOCC1", "hERG current change (%, negative = inhibition) at 10uM": 2.33},
      {"smiles": "Cc1cc(=O)[nH]c(N/N=C/c2cccc([N+](=O)[O-])c2)n1", "hERG current change (%, negative = inhibition) at 10uM": -1.63},
      {"smiles": "COc1ccc(CNc2ncnc3sccc23)cc1", "hERG current change (%, negative = inhibition) at 10uM": -2.78},
      {"smiles": "CCN1C(=O)[C@H]2[C@@H](c3ccc(-c4cccc(Cl)c4)c(OC)c3)N[C@@](Cc3ccccc3)(C(=O)OC)[C@H]2C1=O.O=C(O)C(F)(F)F", "hERG current change (%, negative = inhibition) at 10uM": 11.8},
      {"smiles": "COc1ccc(C(CNC(=O)C(CCSC)NC(=O)c2ccccc2Cl)N2CCCCC2)cc1", "note": "(stereo not shown)", "hERG current change (%, negative = inhibition) at 10uM": -25.5},
      {"smiles": "CN1CCN(c2oc(-c3ccc([N+](=O)[O-])cc3)nc2C#N)CC1", "hERG current change (%, negative = inhibition) at 10uM": -66.1},
      {"smiles": "Cc1nonc1OCCn1c([N+](=O)[O-])cnc1C", "hERG current change (%, negative = inhibition) at 10uM": 4.77},
      {"smiles": "CCN1C(=O)N(C(C)=O)C2C1N(C(C)=O)C(=O)N2C(C)=O", "note": "(stereo not shown)", "hERG current change (%, negative = inhibition) at 10uM": 22},
      {"smiles": "N#CC1=C(N)Oc2c(sc3ccccc23)C1c1ccco1", "note": "(stereo not shown)", "hERG current change (%, negative = inhibition) at 10uM": -4.2},
      {"smiles": "CC(C)n1nnc2c(=O)oc3ccccc3c21", "hERG current change (%, negative = inhibition) at 10uM": 11.2},
      {"smiles": "COc1ccc(OC)c(-c2csc(N(CC3CCCO3)C(=O)C3CCCCC3)n2)c1", "note": "(stereo not shown)", "hERG current change (%, negative = inhibition) at 10uM": 11.6},
      {"smiles": "Cc1cc(C(=O)COC(=O)C(C)NC(N)=O)c(C)n1Cc1ccco1", "note": "(stereo not shown)", "hERG current change (%, negative = inhibition) at 10uM": 10.5},
      {"smiles": "CCOC(=O)CSc1n[nH]c(NC(=O)CC)n1", "hERG current change (%, negative = inhibition) at 10uM": 14.4},
      {"smiles": "COc1ccc(NS(=O)(=O)c2ccc(S(=O)(=O)N(C)C)cc2)cc1S(N)(=O)=O", "hERG current change (%, negative = inhibition) at 10uM": 13.7},
      {"smiles": "Cc1ccc(S(=O)(=O)N2CCN(Cc3cccnc3)CC2)cc1", "hERG current change (%, negative = inhibition) at 10uM": -2.34},
      {"smiles": "C/C(=N/NC(=O)c1ccccn1)c1c[nH]c2ccccc12", "hERG current change (%, negative = inhibition) at 10uM": 3.88},
      {"smiles": "Cc1ccccc1NC(=O)CSc1nc2ncc(Cl)cc2[nH]1", "hERG current change (%, negative = inhibition) at 10uM": 18.6},
      {"smiles": "Cc1ccc(-c2csc(NC(=O)COc3ccc(N(C)S(=O)(=O)c4ccc(C)cc4)cc3)n2)cc1", "hERG current change (%, negative = inhibition) at 10uM": 12.8},
      {"smiles": "Nc1c(C(=O)c2ccccc2)sc(Nc2ccccc2)c1S(=O)(=O)c1ccccc1", "hERG current change (%, negative = inhibition) at 10uM": -5.59},
      {"smiles": "Cc1cccc(-c2cnn(-c3cccc([N+](=O)[O-])c3)c2N)c1", "hERG current change (%, negative = inhibition) at 10uM": -14.6},
      {"smiles": "Cc1cc(NC(=O)CSc2nnc(C3COc4ccccc4O3)o2)no1", "note": "(stereo not shown)", "hERG current change (%, negative = inhibition) at 10uM": 8.03},
      {"smiles": "Cc1ccc2c(CC(=O)NCC3COc4ccccc4O3)coc2c1", "note": "(stereo not shown)", "hERG current change (%, negative = inhibition) at 10uM": -7.79},
      {"smiles": "CCCn1c2ccccc2c2nnc(SCC(=O)OC)nc21", "hERG current change (%, negative = inhibition) at 10uM": -9.64},
      {"smiles": "Cc1ccc(C)c(N2CCN(C(=O)C3CCN(S(=O)(=O)c4c(C)noc4C)CC3)CC2)c1", "hERG current change (%, negative = inhibition) at 10uM": -0.446},
      {"smiles": "Cc1ccc(C(c2sc3nc(C)nn3c2O)N2CCN(c3ccccc3)CC2)cc1", "note": "(stereo not shown)", "hERG current change (%, negative = inhibition) at 10uM": -5.32},
      {"smiles": "COc1ccc(C(O)c2nccc3cc(OC)c(OC)cc23)cc1OC", "note": "(stereo not shown)", "hERG current change (%, negative = inhibition) at 10uM": -2.43},
      {"smiles": "O=C(O)c1ccccc1CSc1ncccc1C(=O)O", "hERG current change (%, negative = inhibition) at 10uM": 17.9},
      {"smiles": "CCC(C)NC(=O)CSc1nc2c(sc3ccccc32)c(=O)n1CCCN1CCOCC1", "note": "(stereo not shown)", "hERG current change (%, negative = inhibition) at 10uM": -53.4},
      {"smiles": "O=S1(=O)C[C@@H](O)[C@@H](Nc2ccccc2)C1", "hERG current change (%, negative = inhibition) at 10uM": 13.8},
      {"smiles": "O=C(CSc1nnc2scc(-c3ccc(Cl)cc3)n12)NCc1ccco1", "hERG current change (%, negative = inhibition) at 10uM": -15.9},
      {"smiles": "Cc1cc(C)cc(OCC(=O)Nc2nc(-c3cccnc3)cs2)c1", "hERG current change (%, negative = inhibition) at 10uM": 4.69},
      {"smiles": "Cc1cc(Cl)ccc1OCc1nc(-c2ccc(O)cc2)n[nH]1", "hERG current change (%, negative = inhibition) at 10uM": -13.7},
      {"smiles": "O=C(c1cc2cc(Cl)ccc2[nH]1)N1CCN(c2ccccn2)CC1", "hERG current change (%, negative = inhibition) at 10uM": 4.56},
      {"smiles": "CCOc1ncccc1C(=O)Nc1ccc(S(=O)(=O)N2CCCC2)cc1", "hERG current change (%, negative = inhibition) at 10uM": 22.9},
      {"smiles": "Cc1ccccc1CC1(CO)CCCN(C(=O)c2cc(-c3ccccc3)no2)C1", "note": "(stereo not shown)", "hERG current change (%, negative = inhibition) at 10uM": 2.91},
      {"smiles": "CC(NC(=O)CSc1ncccc1C(=O)O)C1CC2CCC1C2", "note": "(stereo not shown)", "hERG current change (%, negative = inhibition) at 10uM": 2.17},
      {"smiles": "NC1=NC(=O)C(Cc2ccc(OC(F)(F)F)cc2)S1", "note": "(stereo not shown)", "hERG current change (%, negative = inhibition) at 10uM": 0.102},
      {"smiles": "O=C(Nc1ccccc1N1CCN(C(=O)c2ccccc2)CC1)c1cccc(Cl)c1", "hERG current change (%, negative = inhibition) at 10uM": -67.8},
      {"smiles": "COc1ccc(-c2noc(CN(C)C(=O)c3ccc4c(c3)OCO4)n2)cc1OC", "hERG current change (%, negative = inhibition) at 10uM": -4.61},
      {"smiles": "Cn1c(SCC(=O)c2ccccc2)nnc1-c1ccco1", "hERG current change (%, negative = inhibition) at 10uM": -39.5},
      {"smiles": "COC(=O)CSc1c(-c2ccccc2)c2cc(Cl)ccc2[nH]c1=O", "hERG current change (%, negative = inhibition) at 10uM": 9.65}
    ]}
  ]
}
